In PubChem BioAssay AID2451 (National Center for Advancing Translational Sciences (NCATS), 2010):
Several values for one entry are separate records, joined by “and”; a condition that tells them apart may be missing. Equal entries are not always repeated. Screen size: about 290,000 compounds; about 2,100 (0.72%) were called active. The inconclusive results got no clear call from the source; some entries with a clear call stand among them for comparison. Calls come from the whole dose curve; as a rule, active = well fitted inhibition curve with a large enough effect; inconclusive = small, poorly fitted or top-dose-only effect, or effect the other way; inactive = flat fitted curve, though single readings scatter. Potencies beside an inconclusive call are fits to weak or partial responses and may not hold up.

Each molecule was assayed against Fructose-bisphosphate aldolase (Giardia intestinalis (strain ATCC 50803 / WB clone C6)) (UniProt A8B2U2) (assay: qHTS Assay for Inhibitors of Fructose-1,6-bisphosphate Aldolase from Giardia Lamblia). Conditions: purified Giardia FBPA; activity, negative = inhibition: at 59.6 µM (top of the series) unless noted.
Chain of UniProt A8B2U2 (A8B2U2 whole entry, looked up): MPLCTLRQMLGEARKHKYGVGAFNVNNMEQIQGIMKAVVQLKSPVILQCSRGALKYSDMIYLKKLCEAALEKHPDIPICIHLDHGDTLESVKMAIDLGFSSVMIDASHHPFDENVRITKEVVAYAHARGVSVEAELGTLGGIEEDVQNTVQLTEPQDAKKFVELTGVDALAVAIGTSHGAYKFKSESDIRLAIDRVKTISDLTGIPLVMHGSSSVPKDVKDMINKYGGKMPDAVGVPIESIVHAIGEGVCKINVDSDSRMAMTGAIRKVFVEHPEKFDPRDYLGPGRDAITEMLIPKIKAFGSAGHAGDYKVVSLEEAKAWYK
Procedure, shortened: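 Giardia FBPA (40 nM reagent) was preincubated 10 min at RT with compound (up to 57.5 uM final), then substrate plus GAPDH/TPI/NAD/arsenate coupling system with diaphorase/resazurin was added; resorufin fluorescence (525/598 nm) was read after 20 min.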
% is set by controls: 0 for no effect and ±100 for the full control effect; potency is the fitted concentration of half-maximal effect; tags give direction and shape of the fitted curve.
Note: nearly all actives have a fitted effect of over 55% in size.

Compound	Potency	activity, negative = inhibition
CCc1cccc(OCCCn2ccnc2)c1	inconclusive: 15.8 µM [inhibitor, partial curve]	
COc1cccc(CN2CCN(Cc3cccc(F)c3)CC2)c1	inconclusive: 14.1 µM [inhibitor, partial curve]	
CC(C)C(=O)Nc1ccc(N2CCN(c3ccc(F)cc3)CC2)cc1		inactive: 2.97%
CC1=C(C)/C(=N/OC(=O)c2cccc([N+](=O)[O-])c2)C=CC1=O	inconclusive: 15.8 µM [inhibitor, single point]	
CCOC(=O)C1=C(O)c2ccccc2C(=O)/C1=C\c1ccc(CC)cc1	active: 7.94 µM	
O=C(/C=C/c1cccnc1)c1ccc([N+](=O)[O-])cc1	inconclusive: 25.1 µM [inhibitor, single point]	
CNc1nc(=S)[nH]c2ccccc12	inconclusive: 17.7 µM [inhibitor, partial curve]	
Cc1cccc(NS(=O)(=O)c2nnc(NC(=O)c3cccc(C)c3)s2)c1		inactive: 12.4%
O=C(NC(=S)Nc1sc2c(c1C(=O)O)CCCC2)c1ccccc1	inconclusive: 25.1 µM [inhibitor, partial curve]	
CCc1nnc(NC(=O)CN2CCCC(C)C2)s1 (stereo not given)	active: 3.98 µM	
O=C(N/N=C/c1cc(Br)c(O)c(Br)c1O)c1cccnc1	inconclusive: 7.94 µM [inhibitor, full curve, poor fit]	
N#CC(C#N)=C1c2cc(S(=O)(=O)NCCO)ccc2-c2ccc(S(=O)(=O)NCCO)cc21	inconclusive: 14.1 µM [inhibitor, partial curve]	
COC(=O)N/N=C1\CCCc2ccccc21		inactive: -2.17%
COc1ccc(/C(C)=N/NC(=O)c2nc(C)cc(C)n2)cc1		inactive: -1.07%
CCC(C)c1ccc(O)c(NC(=O)c2ncn[nH]2)c1 (stereo not given)	inconclusive: 15.8 µM [inhibitor, partial curve]	
CCCCC1=CC2=CC(=O)C(C)(OC(=O)CC)C(=O)C2=CN1CCOC (stereo not given)	inconclusive: 561 nM [inhibitor, full curve] and inconclusive: 2.23 µM [inhibitor, partial curve]	
COc1ccccc1CNCC(=O)Nc1ccccc1-n1cccc1	inconclusive: 19.9 µM [inhibitor, partial curve]	
Cc1cccc(OCC(O)CN2CCc3ccccc3C2)c1 (stereo not given)	inconclusive: 25.1 µM [inhibitor, single point]	
CC(C)(C)OC(=O)[C@H](Cc1ccccc1)NC(=O)c1nc[nH]c1C(=O)NCc1ccccc1	inconclusive: 17.7 µM [inhibitor, single point]	
CCn1c(O)c(N=Nc2ccc3ccccc3n2)c2ccccc21		inactive: -7.78%
Cc1ccccc1NC(=O)CCN1CCc2ccccc2C1	inconclusive: 31.5 µM [inhibitor, single point]	
Nc1nc(CSc2ccc(Cl)cc2)nc(N2CCCCC2)n1		inactive: -5.34%
Cn1cc(S(=O)(=O)CC(=O)Nc2ccc(Br)cc2)c2ccccc21	inconclusive: 28.1 µM [inhibitor, partial curve]	
CCOc1ccc(-c2nc(-c3cccs3)c(CC(=O)O)s2)cc1OC		inactive: 22.2%

Compound	Potency	activity, negative = inhibition
CCc1ccc(S(=O)(=O)Nc2cc3c(cc2N2CCOCC2)n(C)c(=O)c(=O)n3C)cc1	inconclusive: 11.2 µM [inhibitor, partial curve]	
O=C(c1csnn1)N1CCC2(CCCN(Cc3ccccc3)C2)CC1		inactive: 2.76%
COc1ccccc1NC(=O)Nc1ccc(C(=O)N2CCCCC2)cc1		inactive: -0.232%
CCOCCCNC(=S)N1CCN(Cc2ccc3c(c2)OCO3)CC1	inconclusive: 15.8 µM [inhibitor, partial curve]	
O=[N+]([O-])c1ccccc1S(=O)(=O)N1CCN(CC2CC=CCC2)CC1 (stereo not given)	inconclusive: 17.7 µM [inhibitor, partial curve]	
C#CCN1C(=O)C(O)(CC(=O)c2cc(OC)ccc2OC)c2ccccc21 (stereo not given)		inactive: 0.87%
O=C(O)C(Cc1ccccc1)N1C(=O)/C(=C/C=C/c2ccco2)SC1=S (stereo not given)	inconclusive: 17.7 µM [inhibitor, single point]	
N#C/C(=C\c1ccc(-c2ccccc2)o1)C(=O)Nn1cnnc1	inconclusive: 5 µM [inhibitor, full curve, poor fit]	
COc1ccc(CNC(=O)[C@H](NC(=O)C2CCN(C(=O)[C@@H](N)CCSC)CC2)C(C)C)cc1	inconclusive: 12.6 µM [inhibitor, partial curve]	
C[C@H](NC(=O)c1nc[nH]c1C(=O)NCC(=O)OCc1ccccc1)C(=O)OCc1ccccc1	inconclusive: 10 µM [inhibitor, partial curve]	
CCCn1c(NC(=O)c2ccc(Br)cc2)nc2ccccc21	inconclusive: 19.9 µM [activator, single point]	
Cc1cccc2cc3c(N)c(C(=O)N4CCOCC4)sc3nc12	inconclusive: 7.06 µM [inhibitor, full curve]	
CCCCC1=CC2=CC(=O)C(C)(OC(=O)CC)C(=O)C2=CN1c1ccc(OC)cc1 (stereo not given)	inconclusive: 1.41 µM [inhibitor, full curve] and inconclusive: 1.41 µM [inhibitor, single point]	
COc1ccc2[nH]c(C)c(CCN(Cc3cccs3)C(=S)Nc3cccc(F)c3)c2c1	inconclusive: 3.54 µM [inhibitor, full curve]	
COc1cc2c(C#N)c(N3CCOCC3)nc(N)c2c(N)n1	inconclusive: 3.15 µM [inhibitor, full curve]	
Nn1c(Cc2ccc(F)cc2)n[nH]c1=S	inconclusive: 15.8 µM [inhibitor, partial curve]	
CC(=O)Cc1cc(O)c2ccccc2c1OC(=O)c1ccc(Br)cc1	inconclusive: 19.9 µM [inhibitor, partial curve]	
Cc1nc(/C(=N/O)C(N)=O)cs1	inconclusive: 15.8 µM [inhibitor, partial curve]	
COC(=O)COc1ccc(S(=O)(=O)NCCC2=CCCCC2)cc1C		inactive: -5.04%
O=C(CSc1nc2ccccc2n1CCc1ccccc1)c1ccc(O)c(O)c1	inconclusive: 17.7 µM [inhibitor, single point]	
CC(=O)Nc1ccc(S(=O)(=O)Nc2cccc(-c3csc(C)n3)c2)cc1		inactive: 4.89%
O=C(NC(=S)Nc1ccc(CN2CCOCC2)cc1)c1cccc(F)c1	active: 11.2 µM	
CC(C)(NC(=O)c1cc(Cl)c2ccccc2c1O)C(=O)O	inconclusive: 11.2 µM [inhibitor, partial curve]	
CCOc1ccccc1-c1nc(-c2ccc(NC(=O)Cc3ccccc3OC)cc2)no1		inactive: -8.35%

Compound	Potency	activity, negative = inhibition
COc1cc(CN2CCCN(C)CC2)c([N+](=O)[O-])cc1OC	inconclusive: 20 µM [inhibitor, partial curve]	
COC(=O)c1ccc(COc2cccc(C)c2C)cc1		inactive: 0.971%
CCC1(C)Cc2sc3c(=O)[nH]c(=S)[nH]c3c2CO1 (stereo not given)	inconclusive: 7.92 µM [inhibitor, full curve]	
COc1cc(NC(=O)c2cc([N+](=O)[O-])ccc2NC(=O)CNCc2ccccn2)cc(OC)c1	inconclusive: 20 µM [activator, partial curve]	
CCOC(=O)c1sc(N)c(C(N)=O)c1C	inconclusive: 25.1 µM [inhibitor, single point]	
Cc1ccc(OCC(=O)N/N=C\c2ccc(-c3cccc(C(=O)O)c3)o2)c(C)c1	inconclusive: 17.7 µM [inhibitor, single point]	
Cc1cc(C)n(CCC(=O)N/N=C/c2ccccc2O)n1	inconclusive: 2.81 µM [inhibitor, full curve]	
CCCN1C(=O)/C(=C/c2ccc(C)o2)SC1=Nc1ccc(OCC)cc1	inconclusive: 17.7 µM [inhibitor, single point]	
CCS(=O)(=O)N1CCN(Cc2c[nH]c3ccccc23)CC1	inconclusive: 19.9 µM [inhibitor, partial curve]	
O=C(O)c1cc(Br)ccn1	active: 15.8 µM	
NS(=O)(=O)c1ccc(-c2ccc(C=C3C(=O)NC(=S)NC3=O)o2)cc1	inconclusive: 25.1 µM [inhibitor, partial curve]	
Clc1ccc(/C=N/Nc2nn[nH]n2)cc1	inconclusive: 2.81 µM [inhibitor, full curve, poor fit]	
Cc1cc(C)nc(N2CCC(C(=O)Nc3ccc4c(c3)CCC4)CC2)n1		inactive: 1.26%
Cc1nc(/N=C\N(C)C)sc1C(=O)Nc1ccccc1		inactive: 20.9%
C=CCn1c(COc2cccc3cccnc23)nnc1SCC(=O)O	inconclusive: 15.8 µM [inhibitor, single point]	
O=C1Nc2ccccc2Nc2ccccc21		inactive: -6.55%
CN1CCN(/N=C/c2nc(-c3cccc([N+](=O)[O-])c3)n3ccccc23)CC1	inconclusive: 12.6 µM [inhibitor, partial curve]	
S=C(NCCNC(=S)Nc1ccccc1Cl)Nc1ccccc1Cl	inconclusive: 15.8 µM [inhibitor, single point]	
CCOC(=O)c1c(/N=C/C2C(=O)NC(=S)NC2=O)sc(C)c1C	inconclusive: 19.9 µM [inhibitor, single point]	
C=CCN1C(=O)/C(=C/c2ccc(OC(C)=O)c(OCC)c2[N+](=O)[O-])SC1=S	inconclusive: 7.06 µM [inhibitor, partial curve]	
CN(C)C(=O)CNC(=O)CN1C(=O)NC2(CCCc3sccc32)C1=O (stereo not given)		inconclusive: 42.9% [activator]
COc1ccccc1CNCC(=O)Nc1ccc(N(C)C)cc1	inconclusive: 25.1 µM [inhibitor, partial curve]	
